Some of these densities may be calculated back from excess volumes.
Assay: xn = mol fraction of the nth substance listed
Conditions: 101 kPa

CC[n+]1ccn(C)c1.F[B-](F)(F)F + CNC=O
x2 = 0
Conditions	mass density [kg/m3]
293.15 K	1283.9
298.15 K	1279.9
303.15 K	1276.3
308.15 K	1272.1

CC[n+]1ccn(C)c1.F[B-](F)(F)F + CN(C)C=O
mass density [kg/m3]
Conditions	293.15 K	298.15 K	303.15 K	308.15 K
x2 = 0	1283.9	1279.9	1276.3	–
x2 = 0.0681	1275.7	1271.8	–	–
x2 = 0.0903	1272.8	1269	1265.4	1261.3
x2 = 0.1257	–	–	1260.6	1256.6
x2 = 0.1717	1261.2	–	1253.9	1250
x2 = 0.2275	1252.2	1248.5	1244.9	1241
x2 = 0.2781	1243.2	1239.5	1235.9	1232.1
x2 = 0.3276	1233.6	1229.9	1226.2	1222.6
x2 = 0.3781	1222.7	1219.1	1215.4	1211.8
x2 = 0.4227	1212.3	1208.7	1204.9	1201.3
x2 = 0.4757	1198.7	–	1191.2	1187.7
x2 = 0.5258	1184.5	–	–	1173.5
x2 = 0.5697	1170.9	1167.2	–	1159.7
x2 = 0.6261	1151.5	1147.9	1143.9	1140.2
x2 = 0.6758	1132.7	1129	1124.8	1121.2
x2 = 0.7291	1110.2	–	1102.3	1098.5
x2 = 0.769	1091.7	–	1083.8	1079.8
x2 = 0.8268	1062.1	1058.3	1054	1049.8
x2 = 0.8789	–	1028.3	1023.9	1019.6

CN(C)C=O + CC[n+]1ccn(C)c1.F[B-](F)(F)F
x1 = 1
Conditions	mass density [kg/m3]
303.15 K	939.8
308.15 K	935.1

CNC=O + CC[n+]1ccn(C)c1.F[B-](F)(F)F
mass density [kg/m3]
Conditions	293.15 K	298.15 K	303.15 K	308.15 K
x1 = 0.0661	1278.2	–	–	–
x1 = 0.0886	1276	1272	1268.5	1264.3
x1 = 0.1287	1272	1268	1264.5	–
x1 = 0.1757	1267	1263	1259.5	1255.3
x1 = 0.2258	1261	1257	1253.5	1249.4
x1 = 0.2783	1254.2	1250.3	1246.7	1242.6
x1 = 0.3287	–	1243.1	–	–
x1 = 0.3729	1240	1236.1	–	–
x1 = 0.4259	1230.8	1226.9	1223.2	1219.2
x1 = 0.4766	1220.9	1217.1	1213.4	1209.4
x1 = 0.5291	1209.6	–	1202	1198
x1 = 0.5749	1198.6	1194.7	–	1186.9
x1 = 0.6252	1185.1	1181.2	1177.4	1173.3
x1 = 0.6773	–	1165.3	1161.5	1157.5
x1 = 0.7281	1151.9	–	1144	–
x1 = 0.7744	1134	–	1126	1121.8
x1 = 0.8271	1110.7	–	1102.5	1098.2
x1 = 0.8782	1084.5	1080.1	–	–
x1 = 1	–	999	994.7	–
